# The supplement of paper PMC3334620
# In all, about 33,000 sequences were measured (“E-score (-0.5 to 0.5)”: median about -0.035, highest 2% from about 0.34 on). The list shows a part of the results.
# Target: T1, Mot3 (UniProt P54785)
# T1 sequence: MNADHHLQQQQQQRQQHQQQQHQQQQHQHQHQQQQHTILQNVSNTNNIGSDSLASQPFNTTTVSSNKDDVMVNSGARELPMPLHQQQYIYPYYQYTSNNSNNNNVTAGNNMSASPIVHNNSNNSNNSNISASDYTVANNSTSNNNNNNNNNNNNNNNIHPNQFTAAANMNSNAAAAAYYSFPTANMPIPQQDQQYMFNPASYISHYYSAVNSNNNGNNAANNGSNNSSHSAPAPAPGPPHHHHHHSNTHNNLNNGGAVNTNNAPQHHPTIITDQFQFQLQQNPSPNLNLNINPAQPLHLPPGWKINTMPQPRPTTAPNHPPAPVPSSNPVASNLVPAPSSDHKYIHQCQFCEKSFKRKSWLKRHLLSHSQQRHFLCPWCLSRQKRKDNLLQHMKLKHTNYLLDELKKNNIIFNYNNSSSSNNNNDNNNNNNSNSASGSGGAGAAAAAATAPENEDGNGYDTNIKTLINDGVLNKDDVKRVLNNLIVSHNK
# Test: PBM E-score (8-mer binding enrichment) (E-score (-0.5 to 0.5)); higher = stronger / more preferred TF binding; most listed sequences are background and not binding sites
# Conditions: protein concentration: 200 nM; construct: GST-full length
# In short: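 The E-score, a modified Wilcoxon-Mann-Whitney statistic, was computed by the Universal PBM Analysis Suite for every ungapped eight-base word pooled with its reverse complement. Scans behind it were normalised with masliner after bound GST-tagged yeast transcription factors were detected with fluorescent anti-GST. The proteins, at about 100-200 nM, had been applied to universal all-10-mer Agilent arrays made double-stranded by primer extension.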
row,Sequence,PBM E-score
1,CTACTGGA,-0.174
2,TCCGTGAA,0.0477
3,GGGCCTTA,-0.0405
4,GCCGGGCC,-0.225
5,ACGAATAA,0.0326
6,GCGAGGCC,-0.309
7,ACCAACCG,-0.16
8,GACCAGAA,-0.0574
9,GCAGAACA,0.121
10,GTACGAAC,0.0908
11,AGCCCCCA,-0.18
12,TCCTTGCA,0.00059
13,AGGTCTCG,-0.126
14,GTTTCGAA,-0.124
15,GCGCTCCC,-0.343
16,CGCCGGGA,-0.395
17,CATGTATA,0.376
18,TCCTGGCA,0.00434
19,ATGTTTGA,0.155
20,CACGAACA,0.114
21,ATAACGTA,0.26
22,ATGCTGTG,0.183
23,TAAGAGCA,0.0808
24,CCCCTGGA,-0.289
25,CAATAAAG,-0.124

row,Sequence,PBM E-score
1,ACGCGCAT,0.122
2,GCTTAGAC,-0.109
3,CCAAGGCC,-0.14
4,ATGAGTGG,-0.24
5,GCGAATCA,-0.121
6,GACAATTA,0.118
7,ACGAGGCG,0.0932
8,AGATAGCT,-0.164
9,CCGAGGAG,-0.223
10,CGGAGTAG,-0.199
11,AGTTGAAC,-0.065
12,TGCTCACA,-0.033
13,AGTGTTTC,0.0895
14,ATACTCGG,-0.127
15,AAGAATAC,0.176
16,GCGCACGC,-0.268
17,ATTCGAAC,0.103
18,GCAGGCGC,0.361
19,AAGGCCCC,0.169
20,GACTCTGA,-0.183
21,GTCGGGGA,-0.0572
22,TGGATGAA,0.0773
23,CGCCCCCG,-0.351
24,ACTTACGC,0.244
25,CGGGGACG,-0.163

row,Sequence,PBM E-score
1,AGTGTAAC,0.128
2,GCCACACA,-0.182
3,CACGCACA,0.211
4,GAAGAATA,0.116
5,ACTGTGTC,0.112
6,AATTAGGG,-0.075
7,ACGAACAA,0.284
8,CAATGGTA,-0.126
9,CTGGCTAA,-0.174
10,AGGGAGCC,-0.0527
11,ACAATCAC,0.0115
12,GACTCACA,-0.0406
13,CTGAACAG,-0.0714
14,AGTCACTC,-0.0206
15,AGTTGATA,0.0115
16,CTCGATCA,-0.121
17,ACGCGAAA,0.112
18,CAGATAAG,-0.00474
19,GGTATTCA,-0.0225
20,AGCACTCC,-0.0737
21,CACCTGTC,-0.194
22,ACAGGGCA,0.205
23,GTCTTATA,-0.0865
24,CCCGCTGC,-0.0487
25,CGCGCTGC,-0.0871

row,Sequence,PBM E-score
1,GCGCTGCA,-0.162
2,GTCCCGCA,-0.155
3,CTGGAACA,0.115
4,ACGGTCCC,-0.368
5,AGCAAACC,-0.0227
6,GCCGGCTA,-0.171
7,CGGTCACG,-0.286
8,AGCTAAAC,-0.0893
9,CGTCCTCC,-0.293
10,CGTTATGA,-0.0228
11,AAAACTGT,0.0347
12,AAACTTAC,0.221
13,ATCTAGTC,-0.164
14,GACGCTAA,-0.251
15,GCACTGCA,-0.0192
16,ATGGGATC,-0.0784
17,CCCCACCA,-0.182
18,AGAGTCGA,-0.216
19,CTGACGAA,-0.0256
20,GCACGCTA,-0.0188
21,CTTGGTCA,-0.139
22,GCGGAAGA,-0.148
23,CGCTCATC,-0.146
24,ATATCCCC,-0.194
25,GGGTCACC,-0.141

row,Sequence,PBM E-score
1,AGCGGGAG,-0.224
2,CAGATCGC,-0.228
3,AGCAGCTC,-0.343
4,ATGGGTCC,-0.266
5,AGGGCTAC,-0.181
6,TGTTTAAA,0.292
7,GCGGCCCC,-0.371
8,TATGGGCA,0.0963
9,CGCGTGTC,0.196
10,ATTTTAGC,0.00675
11,GGATTTCA,-0.191
12,ATCTGGAC,-0.178
13,AGGTCAGG,-0.136
14,ACAGCTAA,0.0405
15,ATTAGGTG,0.0372
16,ACCTGGTA,0.061
17,GAACAAGC,0.245
18,ATCATTAG,0.0699
19,ATCATACA,0.0292
20,GAAAAGCC,-0.338
21,CGGCTGGA,-0.393
22,ACGCCCAA,0.081
23,AGTGAATA,0.206
24,GGCGCAAC,-0.0748
25,AAAGTAAC,0.123

row,Sequence,PBM E-score
1,ACCTCTAG,-0.0785
2,AGTAATAC,0.111
3,AGGCGCCC,0.186
4,CGACAGTA,-0.196
5,AGTACATC,0.166
6,ACAAAGTA,0.101
7,ATATTGCC,0.211
8,AACACACC,0.305
9,AATTCCCT,-0.0506
10,GGCACCAC,0.338
11,CATTGCGC,-0.0779
12,GCGAGTAA,0.146
13,ATAGACCA,-0.221
14,TCCCCAGA,-0.131
15,ATCACCGA,-0.0688
16,TAAGTATA,0.104
17,ACCAGTGC,0.0131
18,AAGTGAGT,-0.0406
19,CGGTAAGA,-0.246
20,CCCACGGG,-0.123
21,AAGGAAGG,0.176
22,GCTGTCAA,-0.114
23,TCAGAACA,0.236
24,CACTAGTC,-0.152
25,GTGCACTA,-0.0707

row,Sequence,PBM E-score
1,AACTGTGC,0.0804
2,CAAGCTCC,-0.29
3,AAAATTCA,0.133
4,CAAAGGTC,-0.199
5,AGTACCCG,0.0468
6,ACGGTTGA,-0.0563
7,ACAGACCT,0.0741
8,GATCTACA,0.255
9,AGTCTTCG,-0.0727
10,GGGAACGA,-0.122
11,AATCGGAT,-0.048
12,CCAGTCGA,-0.156
13,AATGCAAT,0.00807
14,GGTTGTTA,0.216
15,CGAACCAG,-0.031
16,CCCTGTCA,0.00194
17,ATCGAGCG,-0.186
18,TCTACCAA,-0.0908
19,AGGGCAGA,-0.142
20,ACCCTGGA,-0.149
21,AAATAGTG,0.211
22,CTTACGGA,-0.155
